{
  "source": "PubChem BioAssay AID504339",
  "about": "(National Center for Advancing Translational Sciences (NCATS), 2011)",
  "note": "Out of some 390,000 compounds screened, about 17,000 (4.4%) were called active. Inconclusive results, whose numbers are uncertain, are shown with a selection of clear calls. Calls come from the whole dose curve; as a rule, active = well fitted inhibition curve with a large enough effect; inconclusive = small, poorly fitted or top-dose-only effect; inactive = no such curve, though single readings can be large or run the other way. Potencies beside an inconclusive call are fits to weak or partial responses and may not hold up. % is set by controls: 0 for no effect and ±100 for the full control effect; potency is the fitted concentration of half-maximal effect; tags give direction and shape of the fitted curve.",
  "data": [
    {"target": "Lysine-specific demethylase 4A (Homo sapiens) (UniProt O75164)", "sequence (O75164 whole entry, looked up, the tested form may be a part)": "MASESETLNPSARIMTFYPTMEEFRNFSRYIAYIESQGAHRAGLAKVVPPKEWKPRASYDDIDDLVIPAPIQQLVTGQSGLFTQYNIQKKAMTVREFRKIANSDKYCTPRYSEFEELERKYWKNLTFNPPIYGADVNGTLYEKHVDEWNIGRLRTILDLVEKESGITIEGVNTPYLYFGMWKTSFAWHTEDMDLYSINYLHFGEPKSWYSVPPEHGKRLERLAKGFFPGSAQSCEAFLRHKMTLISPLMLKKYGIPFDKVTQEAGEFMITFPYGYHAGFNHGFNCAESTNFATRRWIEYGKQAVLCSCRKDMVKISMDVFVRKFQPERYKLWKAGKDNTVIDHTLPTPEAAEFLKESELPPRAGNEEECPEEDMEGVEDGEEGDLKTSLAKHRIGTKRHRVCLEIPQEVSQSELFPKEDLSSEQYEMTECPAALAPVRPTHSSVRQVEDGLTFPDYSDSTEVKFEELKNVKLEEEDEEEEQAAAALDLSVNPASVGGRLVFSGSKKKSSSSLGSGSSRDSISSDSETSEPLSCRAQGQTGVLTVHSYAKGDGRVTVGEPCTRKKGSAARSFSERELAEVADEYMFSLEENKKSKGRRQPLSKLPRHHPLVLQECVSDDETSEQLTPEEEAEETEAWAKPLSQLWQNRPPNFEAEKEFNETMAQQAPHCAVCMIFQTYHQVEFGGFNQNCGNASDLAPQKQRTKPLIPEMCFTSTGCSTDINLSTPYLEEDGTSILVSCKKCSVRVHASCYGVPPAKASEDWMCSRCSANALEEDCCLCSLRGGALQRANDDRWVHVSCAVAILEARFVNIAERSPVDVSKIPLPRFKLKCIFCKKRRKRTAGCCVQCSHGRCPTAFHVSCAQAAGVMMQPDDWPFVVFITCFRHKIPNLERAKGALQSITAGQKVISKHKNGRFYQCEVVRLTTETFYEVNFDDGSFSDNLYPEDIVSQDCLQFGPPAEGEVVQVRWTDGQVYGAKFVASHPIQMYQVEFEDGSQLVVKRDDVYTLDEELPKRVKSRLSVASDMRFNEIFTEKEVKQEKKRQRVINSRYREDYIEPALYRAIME", "assay": "qHTS Assay for Inhibitors of JMJD2A-Tudor Domain; note: nearly all actives have a fitted effect of over 50% in size", "settings": "AlphaScreen JMJD2A-Tudor / H3K4me3 peptide binding; activity change, negative = inhibition: at 114 µM (top of the series)", "values": [
      {"smiles": "c1ccc(CCn2nnnc2CN2CCCc3ccccc32)cc1", "activity change, negative = inhibition": "inactive: -22.1% [at 11.4 µM]"},
      {"smiles": "O=C(CNC(=O)c1cccc(-n2cnnn2)c1)Nc1ccc(F)c(F)c1", "Potency": "active: 89.1 µM"},
      {"smiles": "Cc1ccc(NC(=S)N(CCN(C)C)Cc2cccs2)c(C)c1", "activity change, negative = inhibition": "inactive: -5.07%"},
      {"smiles": "COc1ccccc1CNC(=O)CC(NS(=O)(=O)c1ccc(C)cc1)c1ccco1", "note": "(configuration not stated)", "Potency": "inconclusive: 28.2 µM [inhibitor, single point]"},
      {"smiles": "CC1=C/C(=C\\c2ccc(Br)o2)C(=O)O1", "Potency": "active: 39.8 µM"},
      {"smiles": "C#CCOCCOCCOCCNc1nc(N2CCN(C(=O)[C@H](CCC(=O)O)n3cc(C(N)CC(C)C)nn3)CC2)nc(N2CCN(C(=O)[C@H](CCC(=O)O)n3cc(C(N)CC(C)C)nn3)CC2)n1", "note": "(some centres not stated)", "Potency": "active: 79.4 µM"},
      {"smiles": "O=C1CC(=O)NC(SCC(=O)Nc2ccccc2[N+](=O)[O-])=N1", "Potency": "active: 35.5 µM"},
      {"smiles": "CC(C)(C)C(=O)NC(=S)N1CCCC1", "Potency": "inconclusive: 39.8 µM [inhibitor, single point]"},
      {"smiles": "CCOc1ccc(C(=S)NC2CCCCC2)cc1OC", "Potency": "inconclusive: 56.2 µM [inhibitor, partial curve]"},
      {"smiles": "COc1ccc(CNc2nc3c(c(=O)n(Cc4ccc(Cl)cc4)c(=O)n3C)n2C)cc1", "Potency": "inconclusive: 50.1 µM [inhibitor, partial curve]"},
      {"smiles": "CCN(CC)S(=O)(=O)c1ccc(N2CCOCC2)c(NC(=O)CNCCc2ccccc2)c1", "Potency": "active: 39.8 µM"},
      {"smiles": "CN(C)c1ccc(C(CNS(=O)(=O)c2ccc(Cl)cc2)N2CCCC2)cc1", "note": "(configuration not stated)", "Potency": "active: 50.1 µM"},
      {"smiles": "O=C(c1ccccc1)N1CCn2c1nc1ccccc12", "Potency": "active: 56.2 µM"},
      {"smiles": "Cc1ccc(C(NC(=O)N2CCCC2)C(Cl)Cl)cc1F", "note": "(configuration not stated)", "activity change, negative = inhibition": "inactive: -11.7%"},
      {"smiles": "CC(=O)c1ccc(N2CCN(C(=O)Cn3cnc(S(=O)(=O)N4CCCCC4)c3)CC2)cc1", "Potency": "inconclusive: 39.8 µM [inhibitor, full curve]"},
      {"smiles": "COc1cc(NC(=O)c2noc3c2CCc2ccccc2-3)cc(OC)c1OC", "activity change, negative = inhibition": "inactive: -31.7%"},
      {"smiles": "O=C(Oc1ccc(-c2cn3c(n2)SCC3)cc1)c1ccccc1", "Potency": "inconclusive: 22.4 µM [inhibitor, full curve, poor fit]"},
      {"smiles": "O=C1CCC(C(=O)NCc2ccc3c(c2)OCO3)N1", "note": "(configuration not stated)", "activity change, negative = inhibition": "inactive: 3.99%"},
      {"smiles": "O=C(Nc1nc2ccc(F)cc2s1)C1CCN(S(=O)(=O)c2cc([N+](=O)[O-])ccc2Cl)CC1", "Potency": "inconclusive: 12.6 µM [inhibitor, full curve]"},
      {"smiles": "O=C(Nc1sc2c(c1C(=O)O)CCC2)c1ccccc1Cl", "Potency": "inconclusive: 22.4 µM [inhibitor, partial curve]"},
      {"smiles": "Cc1ccc(NCC(=O)N/N=C/c2ccc(-c3cccc(C(F)(F)F)c3)o2)cc1", "Potency": "inconclusive: 17.8 µM [inhibitor, full curve]"},
      {"smiles": "COCCNC(=O)CN1C(=O)NC2(CCCCCC2)C1=O", "activity change, negative = inhibition": "inactive: -15.7%"},
      {"smiles": "CCCn1c(CCC(=O)O)ccc1-c1ccc(F)cc1", "Potency": "inconclusive: 56.2 µM [inhibitor, partial curve]"},
      {"smiles": "Nc1ccccc1Nc1cc(-c2cccc(Cl)c2)nn1-c1ccccc1", "Potency": "active: 22.4 µM"},
      {"smiles": "O=C(O)c1ccc(COc2c(F)c(F)cc(F)c2F)o1", "Potency": "inconclusive: 56.2 µM [inhibitor, partial curve]"},
      {"smiles": "CCCCN(C)CCNC(=O)c1cc(-c2cccnc2)nc2ccc(S(=O)(=O)N3CCC(C)CC3)cc12", "Potency": "inconclusive: 14.1 µM [inhibitor, full curve]"},
      {"smiles": "CCN(CC)CCn1c2c(c(SCC(=O)NCc3ccccc3)nc1=O)CCC2", "activity change, negative = inhibition": "inactive: -10%"},
      {"smiles": "Cc1cc([N+](=O)[O-])cc(C)c1OCC(=O)N/N=C/c1ccc(OC(=O)c2ccccc2)cc1", "Potency": "inconclusive: 50.1 µM [inhibitor, partial curve]"},
      {"smiles": "COc1cc(/C=C/CNC[C@H]2O[C@@H](n3ccc(=O)[nH]c3=O)[C@H](O)[C@@H]2O)ccc1O", "activity change, negative = inhibition": "inactive: -18.7%"},
      {"smiles": "CCCN(CC(=O)Nc1ccccc1C)C(=O)C1CC(=O)N(c2cccc(C)c2C)C1", "note": "(configuration not stated)", "activity change, negative = inhibition": "inactive: 7.14%"},
      {"smiles": "COc1cccc(=O)c2c(C)n(-c3cc(C)cc(C)c3)c(C)c12", "Potency": "inconclusive: 56.2 µM [inhibitor, partial curve]"},
      {"smiles": "COC(=O)C(NC(=O)c1ccc(F)cc1)(Nc1ncc(S(=O)(=O)c2ccc([N+](=O)[O-])cc2)s1)C(F)(F)F", "note": "(configuration not stated)", "Potency": "inconclusive: 17.8 µM [inhibitor, partial curve]"},
      {"smiles": "Cc1ccc(SCC(=O)O/N=C(\\N)c2ccc([N+](=O)[O-])cc2)cc1", "Potency": "inconclusive: 39.8 µM [inhibitor, partial curve]"},
      {"smiles": "Cc1[nH]c(=O)[nH]c(=O)c1C1N2CC3(C(C)C)CN1CC(C(C)C)(C2)C3=O", "note": "(configuration not stated)", "activity change, negative = inhibition": "inactive: -17%"},
      {"smiles": "Cc1ccnc(NC(c2ccccc2F)c2ccc3cccnc3c2O)c1", "note": "(configuration not stated)", "Potency": "active: 12.6 µM"},
      {"smiles": "NC(=S)n1[nH]c(-c2ccc([N+](=O)[O-])cc2)c(N=Nc2cccc(Cl)c2)c1=O", "Potency": "active: 39.8 µM"},
      {"smiles": "N#Cc1ccc(-c2cccs2)nc1SCc1ccc(Cl)cc1Cl", "activity change, negative = inhibition": "inactive: 70.1%"},
      {"smiles": "COCC(=O)N(C)C1(c2nnnn2CCOC(=O)Nc2cccc3ccccc23)CCCC1", "Potency": "inconclusive: 79.4 µM [inhibitor, partial curve]"},
      {"smiles": "CCOC(=O)Cc1csc(NC(=O)c2ccc(NC(C)=O)cc2)n1", "Potency": "active: 20 µM"},
      {"smiles": "CCCOc1ccccc1Cn1c(=O)sc2ccccc21", "activity change, negative = inhibition": "inactive: 168%"},
      {"smiles": "COc1ccc(OC)c(NC(=O)Nc2c(O)ccc3ccccc23)c1", "Potency": "inconclusive: 50.1 µM [inhibitor, partial curve]"},
      {"smiles": "Cc1ccc(-c2c(C)n([O-])c3c([n+]2=O)CCCC3)cc1", "Potency": "active: 56.2 µM"},
      {"smiles": "COc1cc(C#N)ccc1OC(=O)c1cccc(S(=O)(=O)N2CCN(C)CC2)c1", "activity change, negative = inhibition": "inactive: -6.21%"},
      {"smiles": "Clc1cccc(C2CCN(Cc3nc(COc4ccccc4)no3)C2)c1", "note": "(configuration not stated)", "Potency": "inconclusive: 89.1 µM [inhibitor, partial curve]"},
      {"smiles": "CC(C)Cn1c(=O)c2ccccc2n2c(-c3cccc(Cl)c3)nnc12", "Potency": "inconclusive: 56.2 µM [inhibitor, partial curve]"},
      {"smiles": "Cc1cc(C(=O)CSc2nncs2)c(C)n1-c1ccc2c(c1)OCO2", "Potency": "inconclusive: 50.1 µM [inhibitor, partial curve]"},
      {"smiles": "COc1ccc(CCNC(=O)CN2CCC(C)CC2)cc1OC", "Potency": "inconclusive: 0.631 µM [inhibitor, full curve, poor fit]"}
    ]}
  ]
}
